# ± gives the standard deviation of the averaged measurements. Over roughly 33,000 sequences, “E-score (dimensionless, -0.5 to 0.5)” has its median near -0.049; the highest 2% begin near 0.37. The list shows a part of the results.
# Test system: T1, PmTbr T-box DNA-binding domain (GST fusion)
# T1 sequence: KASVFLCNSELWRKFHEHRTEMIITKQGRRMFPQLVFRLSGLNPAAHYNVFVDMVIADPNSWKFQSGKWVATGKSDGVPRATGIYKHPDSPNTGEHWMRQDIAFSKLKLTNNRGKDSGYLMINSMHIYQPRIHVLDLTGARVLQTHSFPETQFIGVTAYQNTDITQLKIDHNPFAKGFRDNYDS
# Test: PBM E-score of 8-mer (E-score (dimensionless, -0.5 to 0.5)); Tbr is Tbrain of the sea star Patiria miniata (Pm) or the sea urchin Strongylocentrotus purpuratus (Sp); higher = stronger binding preference; most listed sequences are background and not binding sites
# Settings: the construct has about 5 more residues each side
# Summary of the method: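 Expression of GST-fused Tbr T-box DNA-binding domains, each holding the full T-box plus roughly five flanking residues, was carried out in BL21 E. coli at 20 °C, with purification by glutathione affinity chromatography. Universal Agilent arrays made double-stranded by primer extension were incubated with the protein at 200 nM in PBS (pH 7.5), then scanned and quantified. All ungapped 8-mers were scored from probe intensities, and each received an enrichment E-score from the Universal PBM Analysis Suite, averaged over duplicate arrays.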
row,Sequence,PBM E-score of 8-mer
1,CTCTTCCC,-0.0463 ± 0.032
2,CACGTCAA,0.191 ± 0.048
3,ATATCCAT,0.013 ± 0.025
4,AATTGGTC,-0.139 ± 0.051
5,AGATCTAT,0.0629 ± 0.018
6,ACCGTTTG,-0.117 ± 0.09
7,AGGGGTCC,-0.13 ± 0.013
8,AGGGCCCC,-0.273 ± 0.02
9,TGAGCGCA,-0.14 ± 0.0064
10,CGCCCAGA,0.049 ± 0.014
11,CCTGGCGA,0.166 ± 0.031
12,TACCGTCA,0.118 ± 0.037
13,AAAGTTGC,0.147 ± 0.01
14,TAGCTCAA,-0.184 ± 0.04
15,AAGGGGGA,-0.314 ± 0.023
16,AGGTCTTG,-0.0677 ± 0.051
17,TGGCAACA,0.245 ± 0.014
18,CGGAGGAA,-0.305 ± 0.028
19,ATTGTATA,-0.246 ± 0.012
20,AATCCAGT,-0.109 ± 0.012
21,CAACAGGC,0.06467 ± 0.00054
22,CCTTAGGA,-0.198 ± 0.013

row,Sequence,PBM E-score of 8-mer
1,TATTTCAA,-0.155 ± 0.019
2,TTGCACAA,0.0126 ± 0.031
3,CGATCATC,-0.0729 ± 0.037
4,AAGGCGGT,-0.0505 ± 0.086
5,AGGCTAGG,-0.233 ± 0.026
6,AGCATGTG,0.183 ± 0.0033
7,CATGATGA,0.0524 ± 0.058
8,TACGCGAA,0.136 ± 0.036
9,AAGTATCG,0.135 ± 0.0061
10,CCGCTAAA,0.275 ± 0.022
11,CCCAGCCC,-0.102 ± 0.025
12,GGATCCAA,-0.211 ± 0.089
13,CGCGGAAG,0.11 ± 0.036
14,GCATTGCC,-0.104 ± 0.0042
15,GGAACGTA,-0.204 ± 0.057
16,ACCGGTGC,-0.139 ± 0.065
17,AATAGTTC,-0.0733 ± 0.033
18,AATAACTC,-0.065 ± 0.035
19,CAATCCCG,-0.0527 ± 0.0032
20,GAAGCACA,-0.148 ± 0.025
21,ATACCGTG,0.0987 ± 0.017
22,ACTACTTG,0.0273 ± 0.046

row,Sequence,PBM E-score of 8-mer
1,ATTTCTAC,-0.00722 ± 0.0049
2,GCACGTGA,0.225 ± 0.0076
3,AACTTAAC,0.0266 ± 0.052
4,CCCCGGGG,-0.304 ± 0.068
5,CATTAACG,0.163 ± 0.032
6,AAGAATCA,-0.0502 ± 0.015
7,ACCTGGGC,0.044 ± 0.0094
8,GGTTGAAC,-0.16 ± 0.045
9,CATTCAGA,0.01316 ± 0.00011
10,ATCCGCTA,0.0902 ± 0.015
11,GCGTGTCC,0.16 ± 0.057
12,ACACATGT,0.316 ± 0.011
13,CCTGATTC,-0.136 ± 0.021
14,ATTAAGAC,0.00011 ± 0.12
15,ATATCACG,0.184 ± 0.013
16,CGCATAAA,-0.134 ± 0.049
17,GCACTCAA,0.0191 ± 0.0037
18,ACCCCGGA,0.052 ± 0.11
19,TGTACACA,-0.0482 ± 0.031
20,AGCACCGA,-0.00405 ± 0.11
21,ATACTGGA,-0.0727 ± 0.11
22,AAAAGGCA,0.0417 ± 0.053

row,Sequence,PBM E-score of 8-mer
1,AAAGTGCT,0.342 ± 0.025
2,CAACCACA,-0.105 ± 0.015
3,AAAGGATT,-0.229 ± 0.0066
4,CTGACAAA,0.12 ± 0.038
5,GGTGTTGA,0.4746 ± 0.0036
6,AAGGCAAT,-0.188 ± 0.048
7,ATAGCCTG,-0.152 ± 0.013
8,AAGCCCAG,-0.229 ± 0.013
9,ACATAGAC,-0.176 ± 0.02
10,GACTGCAA,0.0012 ± 0.1
11,ACACATCC,0.3871 ± 0.0015
12,CGCCCCGC,0.0841 ± 0.087
13,AACGTACT,-0.213 ± 0.026
14,TCCAATAA,-0.0524 ± 0.043
15,CTAGAGTC,-0.154 ± 0.088
16,CGAGTGCG,0.225 ± 0.033
17,AGAGACTC,-0.292 ± 0.018
18,CTAAAGCA,-0.0165 ± 0.061
19,AAGGCATC,-0.111 ± 0.022
20,GTGTAAAC,0.2899 ± 0.00037

# Reference: the supplement of paper PMC4166925
